Read-outs that look alike come from different tables or passages of the source. These are yes or no findings as the source states them, for the method shown. In cells and extracts the contact can be indirect. Some results given as binding are weak or reduced against the parent protein; the word gives no strength. For some of these results: Where a sequence is shown, tags or fusion partners need not be part of it.

Chains of the proteins cited; added tags and fusions are not shown.
UniProt Q01844: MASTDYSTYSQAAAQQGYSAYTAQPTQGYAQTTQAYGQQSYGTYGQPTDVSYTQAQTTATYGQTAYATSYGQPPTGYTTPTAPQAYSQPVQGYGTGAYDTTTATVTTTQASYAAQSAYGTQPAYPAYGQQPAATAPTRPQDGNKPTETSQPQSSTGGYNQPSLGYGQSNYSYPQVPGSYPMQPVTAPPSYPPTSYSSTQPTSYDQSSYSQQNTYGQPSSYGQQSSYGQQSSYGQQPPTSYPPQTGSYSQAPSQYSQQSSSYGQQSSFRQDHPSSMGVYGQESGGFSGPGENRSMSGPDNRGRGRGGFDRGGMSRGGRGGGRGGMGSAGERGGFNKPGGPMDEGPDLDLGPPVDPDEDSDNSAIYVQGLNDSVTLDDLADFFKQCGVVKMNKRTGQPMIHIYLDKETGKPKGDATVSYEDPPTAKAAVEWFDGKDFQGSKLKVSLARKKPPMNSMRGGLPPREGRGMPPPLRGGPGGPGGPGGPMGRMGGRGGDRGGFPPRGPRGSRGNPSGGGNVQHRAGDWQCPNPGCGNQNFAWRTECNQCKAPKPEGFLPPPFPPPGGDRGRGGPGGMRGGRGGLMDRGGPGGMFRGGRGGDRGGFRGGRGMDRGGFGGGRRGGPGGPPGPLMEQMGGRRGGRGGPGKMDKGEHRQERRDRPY
UniProt P08621: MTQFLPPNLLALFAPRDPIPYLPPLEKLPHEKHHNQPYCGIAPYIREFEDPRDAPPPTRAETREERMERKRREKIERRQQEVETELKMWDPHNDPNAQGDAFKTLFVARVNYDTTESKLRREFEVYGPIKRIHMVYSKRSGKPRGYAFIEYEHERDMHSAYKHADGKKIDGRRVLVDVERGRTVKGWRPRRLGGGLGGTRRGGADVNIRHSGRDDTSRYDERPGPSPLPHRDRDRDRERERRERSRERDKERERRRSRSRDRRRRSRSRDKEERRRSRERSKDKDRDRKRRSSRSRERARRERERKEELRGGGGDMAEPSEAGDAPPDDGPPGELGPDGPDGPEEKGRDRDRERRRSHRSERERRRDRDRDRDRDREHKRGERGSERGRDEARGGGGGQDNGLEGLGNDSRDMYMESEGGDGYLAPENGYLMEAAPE
UniProt Q15393: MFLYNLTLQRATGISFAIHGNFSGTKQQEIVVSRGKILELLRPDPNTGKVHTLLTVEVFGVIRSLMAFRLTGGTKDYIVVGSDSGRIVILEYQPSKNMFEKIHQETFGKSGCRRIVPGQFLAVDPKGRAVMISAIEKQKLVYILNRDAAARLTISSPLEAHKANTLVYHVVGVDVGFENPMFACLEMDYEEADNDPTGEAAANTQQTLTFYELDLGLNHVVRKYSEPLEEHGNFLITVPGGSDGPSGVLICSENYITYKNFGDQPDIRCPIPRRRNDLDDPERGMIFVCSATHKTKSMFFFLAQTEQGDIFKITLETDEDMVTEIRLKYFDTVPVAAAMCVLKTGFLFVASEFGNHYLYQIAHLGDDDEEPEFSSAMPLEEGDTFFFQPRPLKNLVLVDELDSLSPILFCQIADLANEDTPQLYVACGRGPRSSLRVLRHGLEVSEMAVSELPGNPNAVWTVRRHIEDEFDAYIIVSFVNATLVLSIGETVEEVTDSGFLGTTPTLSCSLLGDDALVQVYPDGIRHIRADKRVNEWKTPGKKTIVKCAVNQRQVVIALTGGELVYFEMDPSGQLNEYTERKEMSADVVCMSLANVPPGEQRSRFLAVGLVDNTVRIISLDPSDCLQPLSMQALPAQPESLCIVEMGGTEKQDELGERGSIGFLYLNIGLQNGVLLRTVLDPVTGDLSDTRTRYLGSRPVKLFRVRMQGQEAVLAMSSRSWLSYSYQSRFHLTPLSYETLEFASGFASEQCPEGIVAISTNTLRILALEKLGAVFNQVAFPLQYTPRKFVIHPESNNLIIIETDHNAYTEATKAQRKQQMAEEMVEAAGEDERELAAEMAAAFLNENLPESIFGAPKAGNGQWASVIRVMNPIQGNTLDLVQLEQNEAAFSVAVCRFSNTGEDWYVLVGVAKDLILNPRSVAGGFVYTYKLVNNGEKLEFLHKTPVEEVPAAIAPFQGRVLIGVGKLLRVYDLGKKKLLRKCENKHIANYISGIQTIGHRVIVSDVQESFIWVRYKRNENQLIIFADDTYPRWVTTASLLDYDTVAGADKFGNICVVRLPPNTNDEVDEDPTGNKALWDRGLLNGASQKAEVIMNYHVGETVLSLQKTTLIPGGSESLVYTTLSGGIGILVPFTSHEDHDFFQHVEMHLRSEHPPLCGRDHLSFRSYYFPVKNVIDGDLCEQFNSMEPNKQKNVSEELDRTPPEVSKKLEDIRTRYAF
UniProt Q13435: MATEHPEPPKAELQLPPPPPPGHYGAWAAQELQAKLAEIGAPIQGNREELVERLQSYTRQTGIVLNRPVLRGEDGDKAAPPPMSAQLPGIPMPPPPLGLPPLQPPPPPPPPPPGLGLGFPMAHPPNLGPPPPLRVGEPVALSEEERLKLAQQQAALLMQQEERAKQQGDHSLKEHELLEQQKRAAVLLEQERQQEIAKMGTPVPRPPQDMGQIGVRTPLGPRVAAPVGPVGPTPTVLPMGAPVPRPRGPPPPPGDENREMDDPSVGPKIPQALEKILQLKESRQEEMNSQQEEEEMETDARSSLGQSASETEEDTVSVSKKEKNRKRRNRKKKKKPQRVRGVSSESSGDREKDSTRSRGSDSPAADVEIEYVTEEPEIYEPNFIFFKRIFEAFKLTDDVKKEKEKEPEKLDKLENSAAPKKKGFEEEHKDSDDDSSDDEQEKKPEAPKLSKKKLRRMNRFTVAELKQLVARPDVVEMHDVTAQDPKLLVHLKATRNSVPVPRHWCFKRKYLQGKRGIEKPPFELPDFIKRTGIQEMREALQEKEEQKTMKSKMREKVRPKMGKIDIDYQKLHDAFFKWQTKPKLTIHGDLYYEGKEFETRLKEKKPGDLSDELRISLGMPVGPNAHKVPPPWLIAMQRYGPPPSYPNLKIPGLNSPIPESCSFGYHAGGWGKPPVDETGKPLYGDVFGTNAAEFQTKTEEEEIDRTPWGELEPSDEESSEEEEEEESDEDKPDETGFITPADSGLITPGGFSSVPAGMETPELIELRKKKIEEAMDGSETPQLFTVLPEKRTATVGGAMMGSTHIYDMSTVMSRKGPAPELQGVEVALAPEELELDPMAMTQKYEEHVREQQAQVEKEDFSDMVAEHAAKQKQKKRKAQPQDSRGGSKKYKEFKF

The target in assay [1] is T1, endogenous ERG (human (endogenous in HeLa)) (UniProt P11308).
T1 sequence: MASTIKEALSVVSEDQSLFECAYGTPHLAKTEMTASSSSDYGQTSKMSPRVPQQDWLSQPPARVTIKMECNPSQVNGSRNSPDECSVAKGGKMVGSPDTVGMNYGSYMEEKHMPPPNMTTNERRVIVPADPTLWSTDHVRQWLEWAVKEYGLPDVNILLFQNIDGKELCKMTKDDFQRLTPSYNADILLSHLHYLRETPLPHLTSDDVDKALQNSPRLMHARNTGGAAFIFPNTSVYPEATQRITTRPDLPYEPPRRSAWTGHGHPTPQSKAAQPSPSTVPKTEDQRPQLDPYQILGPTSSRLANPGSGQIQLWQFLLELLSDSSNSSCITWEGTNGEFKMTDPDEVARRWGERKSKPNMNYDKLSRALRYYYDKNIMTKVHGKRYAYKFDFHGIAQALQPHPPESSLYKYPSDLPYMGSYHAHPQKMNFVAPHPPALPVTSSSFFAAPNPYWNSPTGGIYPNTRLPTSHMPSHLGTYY
Briefly: co-IP; endogenous ERG immunoprecipitated with anti-ERG antibody and Protein G magnetic beads from HeLa lysates (IPLS buffer, 120 mM NaCl, 0.5% NP-40), lysates incubated 30 min at 37°C with or without RNase A (200 μg/ml); Western blot. On the technique in general: Immunoblotting shows a protein as a band on a membrane.

The next assay deals with FLAG-tagged EWS (human) (UniProt Q01844). Briefly: co-IP; RNase A-treated lysates of HEK293 cells transfected with Myc-RBFOX2 and FLAG-tagged proteins; anti-FLAG immunoprecipitation, anti-Myc and anti-FLAG Western blot.
The target of assay [2] is T2, FLAG-tagged FLI1 (human) (UniProt Q01543).
T2 sequence: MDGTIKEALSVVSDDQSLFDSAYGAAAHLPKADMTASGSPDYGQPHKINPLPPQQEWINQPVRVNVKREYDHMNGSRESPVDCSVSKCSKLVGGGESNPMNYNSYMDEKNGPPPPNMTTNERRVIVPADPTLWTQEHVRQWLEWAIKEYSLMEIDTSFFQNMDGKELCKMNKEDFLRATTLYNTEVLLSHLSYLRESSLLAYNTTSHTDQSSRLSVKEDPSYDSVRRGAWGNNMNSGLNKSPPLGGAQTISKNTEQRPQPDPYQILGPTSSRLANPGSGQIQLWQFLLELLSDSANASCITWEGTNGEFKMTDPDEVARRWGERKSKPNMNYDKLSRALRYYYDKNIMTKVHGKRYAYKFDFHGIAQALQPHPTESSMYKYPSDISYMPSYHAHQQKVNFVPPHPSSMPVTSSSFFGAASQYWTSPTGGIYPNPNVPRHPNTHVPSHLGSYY
The assay is described as above.

A further assay has as its target T3, FLAG-tagged ERG (human) (UniProt P11308).
T3 sequence: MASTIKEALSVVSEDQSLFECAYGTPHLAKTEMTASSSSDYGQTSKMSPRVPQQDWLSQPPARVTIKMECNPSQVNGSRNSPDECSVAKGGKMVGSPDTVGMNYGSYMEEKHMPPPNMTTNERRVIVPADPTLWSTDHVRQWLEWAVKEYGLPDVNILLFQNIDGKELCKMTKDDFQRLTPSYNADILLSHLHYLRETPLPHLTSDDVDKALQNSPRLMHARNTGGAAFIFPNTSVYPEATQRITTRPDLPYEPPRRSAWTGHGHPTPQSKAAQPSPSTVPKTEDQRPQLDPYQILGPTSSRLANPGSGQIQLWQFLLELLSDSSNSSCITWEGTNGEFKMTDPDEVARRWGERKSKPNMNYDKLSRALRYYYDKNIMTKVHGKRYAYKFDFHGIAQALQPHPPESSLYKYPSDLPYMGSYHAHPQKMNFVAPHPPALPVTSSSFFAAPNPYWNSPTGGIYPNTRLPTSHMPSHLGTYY
Briefly: co-IP; HEK293 cells transfected with FLAG-tagged ERG family members and HA-RBFOX1 or Myc-RBFOX2; anti-FLAG M2 magnetic beads, washes with IPLS and IPMS (500 mM NaCl) buffers; Western blot.

A further assay addresses T4, FLAG-tagged FEV (human) (UniProt Q99581).
T4 sequence: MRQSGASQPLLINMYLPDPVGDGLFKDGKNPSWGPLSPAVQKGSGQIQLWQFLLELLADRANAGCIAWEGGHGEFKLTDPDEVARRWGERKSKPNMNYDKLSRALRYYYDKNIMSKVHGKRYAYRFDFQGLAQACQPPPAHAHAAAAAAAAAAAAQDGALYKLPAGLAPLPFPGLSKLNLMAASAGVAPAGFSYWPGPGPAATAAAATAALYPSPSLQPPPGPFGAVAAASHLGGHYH
The description is as above.

The target of assay [3] is T2, FLAG-tagged FLI1 (human). Described as above.
Assay [4] concerns the target T5, ERG full-length fused to a Gaussia princeps luciferase fragment (human) (UniProt P11308).
T5 sequence: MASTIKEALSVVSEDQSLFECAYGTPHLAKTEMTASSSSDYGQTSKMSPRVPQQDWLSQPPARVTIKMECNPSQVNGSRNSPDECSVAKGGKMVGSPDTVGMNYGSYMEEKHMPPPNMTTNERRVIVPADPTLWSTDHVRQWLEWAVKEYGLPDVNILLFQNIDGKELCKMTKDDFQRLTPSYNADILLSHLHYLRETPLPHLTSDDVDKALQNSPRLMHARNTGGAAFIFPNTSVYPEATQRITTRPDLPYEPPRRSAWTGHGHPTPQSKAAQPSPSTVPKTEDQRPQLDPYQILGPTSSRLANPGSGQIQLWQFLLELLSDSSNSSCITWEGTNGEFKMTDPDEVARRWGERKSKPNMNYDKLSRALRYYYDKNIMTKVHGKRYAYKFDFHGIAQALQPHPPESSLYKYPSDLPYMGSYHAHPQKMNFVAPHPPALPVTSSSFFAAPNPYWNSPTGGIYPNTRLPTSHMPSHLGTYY
Description: split reporter; Gaussia princeps luciferase complementation (gPCA): GLucN1 and GLucN2 fusions co-transfected in HEK293T cells, luminescence of lysates 24 h after transfection.

In assay [5] the target is T1, endogenous ERG (human (endogenous in HeLa)). Briefly: co-IP; endogenous ERG immunoprecipitated with anti-ERG antibody and Protein G magnetic beads from HeLa lysates (IPLS buffer, 120 mM NaCl, 0.5% NP-40), lysates incubated 30 min at 37°C with or without RNase A (200 μg/ml); Western blot. The source holds these as a separate data set.

As to U1–70K (from UniProt P08621 1-437), in assay [1], the binding result was “binds”. Still for that read-out and setting: the same measure for SF3B3 (from UniProt Q15393 1-1217): “binds”. On to SF3B2 (from UniProt Q13435 1-895), for which the binding result in assay [1] is listed as “binds”.

B1: Myc-tagged RBFOX2 (protein, UniProt O43251 1-390)
chain: MQNEPLTPGYHGFPARDSQGNQEPTTTPDAMVQPFTTIPFPPPPQNGIPTEYGVPHTQDYAGQTGEHNLTLYGSTQAHGEQSSNSPSTQNGSLTTEGGAQTDGQQSQTQSSENSESKSTPKRLHVSNIPFRFRDPDLRQMFGQFGKILDVEIIFNERGSKGFGFVTFENSADADRAREKLHGTVVEGRKIEVNNATARVMTNKKMVTPYANGWKLSPVVGAVYGPELYAASSFQADVSLGNDAAVPLSGRGGINTYIPLISLPLVPGFPYPTAATTAAAFRGAHLRGRGRTVYGAVRAVPPTAIPAYPGVVYQDGFYGADLYGGYAAYRYAQPATATAATAAAAAAAAYSDGYGRVYTADPYHALAPAASYGVGAVASLYRGGYSRFAPY
On to B1, for which the binding result is “no binding” with FLAG-tagged EWS (human); “binds” with FLAG-tagged FLI1 (human) [2]; “binds” with FLAG-tagged ERG (human); “binds” in the assay with FLAG-tagged FEV (human); “binds” with FLAG-tagged FLI1 (human) [3].

B2: RBFOX2 fused to a Gaussia princeps luciferase fragment (protein, UniProt O43251 1-390)
chain: MQNEPLTPGYHGFPARDSQGNQEPTTTPDAMVQPFTTIPFPPPPQNGIPTEYGVPHTQDYAGQTGEHNLTLYGSTQAHGEQSSNSPSTQNGSLTTEGGAQTDGQQSQTQSSENSESKSTPKRLHVSNIPFRFRDPDLRQMFGQFGKILDVEIIFNERGSKGFGFVTFENSADADRAREKLHGTVVEGRKIEVNNATARVMTNKKMVTPYANGWKLSPVVGAVYGPELYAASSFQADVSLGNDAAVPLSGRGGINTYIPLISLPLVPGFPYPTAATTAAAFRGAHLRGRGRTVYGAVRAVPPTAIPAYPGVVYQDGFYGADLYGGYAAYRYAQPATATAATAAAAAAAAYSDGYGRVYTADPYHALAPAASYGVGAVASLYRGGYSRFAPY
Regarding B2, in assay [4], the binding entry is “binds”.

B3: endogenous RBFOX2 (HeLa cells) (protein, UniProt O43251 1-390)
chain: MQNEPLTPGYHGFPARDSQGNQEPTTTPDAMVQPFTTIPFPPPPQNGIPTEYGVPHTQDYAGQTGEHNLTLYGSTQAHGEQSSNSPSTQNGSLTTEGGAQTDGQQSQTQSSENSESKSTPKRLHVSNIPFRFRDPDLRQMFGQFGKILDVEIIFNERGSKGFGFVTFENSADADRAREKLHGTVVEGRKIEVNNATARVMTNKKMVTPYANGWKLSPVVGAVYGPELYAASSFQADVSLGNDAAVPLSGRGGINTYIPLISLPLVPGFPYPTAATTAAAFRGAHLRGRGRTVYGAVRAVPPTAIPAYPGVVYQDGFYGADLYGGYAAYRYAQPATATAATAAAAAAAAYSDGYGRVYTADPYHALAPAASYGVGAVASLYRGGYSRFAPY
For the molecule B3, the binding entry in assay [5] is recorded as “binds”.

B4: HA-tagged RBFOX1 (protein, UniProt Q9NWB1 1-397)
chain: MNCEREQLRGNQEAAAAPDTMAQPYASAQFAPPQNGIPAEYTAPHPHPAPEYTGQTTVPEHTLNLYPPAQTHSEQSPADTSAQTVSGTATQTDDAAPTDGQPQTQPSENTENKSQPKRLHVSNIPFRFRDPDLRQMFGQFGKILDVEIIFNERGSKGFGFVTFENSADADRAREKLHGTVVEGRKIEVNNATARVMTNKKTVNPYTNGWKLNPVVGAVYSPEFYAGTVLLCQANQEGSSMYSAPSSLVYTSAMPGFPYPAATAAAAYRGAHLRGRGRTVYNTFRAAAPPPPIPAYGGVVYQDGFYGADIYGGYAAYRYAQPTPATAAAYSDSYGRVYAADPYHHALAPAPTYGVGAMNAFAPLTDAKTRSHADDVGLVLSSLQASIYRGGYNRFAPY
As for B4, the binding entry with FLAG-tagged ERG (human), with FLAG-tagged FEV (human) and with FLAG-tagged FLI1 (human) [3] was “binds” each time.

Source of the values: PMC8136815.
